Results as given in PubChem BioAssay (NCATS).
Values joined by “and” are separate entries in the source; they are usually repeats but may differ in a detail not shown here. Equal values may be shown once. The shares of active, inactive and inconclusive entries below differ from those in the screen. Where the call is inconclusive, the potency comes from a doubtful curve fit. Active and inactive are the calls of the source. Calls follow the shape of the dose curve; as a rule, active = well fitted cell-killing curve with a large enough effect; inconclusive = small, poorly fitted or top-dose-only effect, or effect the other way; inactive = no such curve, though single readings can be large or run the other way.

Key:
[1] = Viability qHTS for spleen associated tyrosine kinase inhibitor (SYKi) naive MV4-11 cells (AID 1963823); conditions: MV4-11 AML viability, CellTiter-Glo luminescence, 72 h; series mostly up to 45 µM; also: nearly all actives have a fitted effect of over 40% in size
Summary of the method: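 qHTS, SYK inhibitor-naive MV4-11; 500 cells/well; 72 hr compound exposure, 37 C; CellTiter-Glo added, 10 min RT; luminescence read.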

[2] = Viability qHTS for spleen associated tyrosine kinase inhibitor (SYKi) drug resistant MV4-11 cells (AID 1963824); also: nearly all actives have a fitted effect of over 35% in size
Summary of the method: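 SYK inhibitor-resistant MV4-11 AML cells, 500 per well, added to predispensed compounds and incubated 72 hr at 37 C, 5% CO2. Viability measured by CellTiter-Glo luminescence after 10 min at room temperature.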
Potency is read from the fitted curve at half-maximal effect; tags tell the direction and shape of the fitted curve.

Structure (SMILES) | Potency [1] | Potency [2]
CCOC(=O)[C@H](CCc1ccccc1)N[C@@H](C)C(=O)N1[C@H](C(=O)O)C[C@@H]2CCC[C@@H]21 | inconclusive: 20.9 µM [cytotoxic, partial curve] | inactive and inconclusive: 20.9 µM [cytotoxic, partial curve]
O=c1[nH]cnc2c([C@@H]3N[C@H](CO)[C@@H](O)[C@H]3O)c[nH]c12 | inactive | inactive
Cc1cc2ncc(-c3ccccc3)nc2cc1C | inconclusive: 0.0184 µM [rising, full curve, poor fit] | inconclusive: 0.0103 µM [rising, full curve, poor fit]
CN1[C@@H]2CC[C@H]1CC(OC(c1ccccc1)c1ccccc1)C2 (stereo not given in full) | inconclusive: 14.6 µM [cytotoxic, partial curve, poor fit] | inconclusive: 16.4 µM [cytotoxic, partial curve]
CC(NC(=O)CCc1nc2ccccc2c(=O)[nH]1)c1ccccc1 (stereo not given) | inconclusive: 18.4 µM [cytotoxic, partial curve, poor fit] | inconclusive: 23.1 µM [cytotoxic, single point]
CCC12CCCN3CCc4c(n(c5ccccc45)C(O)C1)C32 (stereo not given) | inconclusive: 11.6 µM [cytotoxic, partial curve] | inconclusive: 20.6 µM [cytotoxic, partial curve, poor fit]
Cc1cc2c(OCC(CNC(C)(C)C)OC(=O)c3ccccc3)cccc2[nH]1 (stereo not given) | inactive | inconclusive: 0.0473 µM [cytotoxic, full curve, poor fit]
NC(=O)C(CCC(F)(F)F)N(Cc1ccc(-c2ncon2)cc1F)S(=O)(=O)c1ccc(Cl)cc1 (stereo not given) | inconclusive: 20.6 µM [cytotoxic, partial curve] | inconclusive: 23.1 µM [cytotoxic, single point]
Cc1cccc(C#Cc2cc(F)cc(C#N)c2)n1 | inactive | inconclusive: 29.1 µM [cytotoxic, single point]
CC(O)C(=O)/C=C/C=C/C(=O)OC1C=C2COC(=O)C2(O)C2(C)CCCC(C)(C)C12 (stereo not given) | inconclusive: 11.2 µM [cytotoxic, single point] | inconclusive: 11.2 µM [cytotoxic, partial curve]
O=c1ccn([C@@H]2O[C@H](CO)[C@@H](O)[C@H]2O)c(=O)[nH]1 | inactive | inactive
COc1c2c(c(C)c3c1C(=O)OC3)O[C@@]1(C)C[C@@H](OC(C)=O)[C@]34O[C@](OC)(CC[C@]3(C)[C@H]1C2)OC4(C)C | inconclusive: 10 µM [cytotoxic, partial curve] | inconclusive: 11.2 µM [cytotoxic, partial curve]
CC(C)=C1CC2[C@](C)(CC[C@@H](OC(=O)C3(C)OC3C)[C@@]2(C)O)CC1=O (stereo not given in full) | inactive | inactive
c1ccc2sc(SN3CCOCC3)nc2c1 | inactive | inactive
Cc1cccc(S(=O)(=O)N2CCC[C@@H]2CCN2CCC(C)CC2)c1 | inconclusive: 20.6 µM [cytotoxic, partial curve, poor fit] | inconclusive: 16.4 µM [cytotoxic, partial curve, poor fit]
O=C(NCC1(N2CCN(c3ccccc3)CC2)CCOCC1)c1cccnc1Sc1ccccc1 | inconclusive: 16.4 µM [cytotoxic, partial curve] | inconclusive: 13 µM [cytotoxic, partial curve]
C=C[C@@H]1CN2CCC1C[C@H]2[C@H](O)c1ccnc2ccc(OC)cc12 (stereo not given in full) | inconclusive: 23.5 µM [cytotoxic, partial curve] | inconclusive: 20.9 µM [cytotoxic, partial curve]
C[C@@H](O[C@H]1OCCN(Cc2n[nH]nc2CN(C)C)[C@H]1c1ccc(F)cc1)c1cc(C(F)(F)F)cc(C(F)(F)F)c1 | active: 10.3 µM | active: 6.51 µM
Cn1cc(CCn2cnc(-c3cnn(C)c3)c2-c2ccc(C#N)cc2)cn1 | inconclusive: 9.2 µM [cytotoxic, partial curve, poor fit] | inactive
CCC(=O)O[C@]1(C(=O)CCl)[C@@H](C)C[C@H]2[C@@H]3C[C@H](F)C4=CC(=O)C=C[C@]4(C)[C@@]3(F)[C@@H](O)C[C@@]21C | inconclusive: 23.1 µM [cytotoxic, partial curve, poor fit] | active: 18.4 µM
